# Laboratory results published in the supplement of paper PMC7826260.
# The other results are listed elsewhere or left out. Viral Rep nickase domains cut single-stranded DNA in vitro (1 h at 37 °C, 3 µM enzyme); the outer parts of the 90-letter strands are left off. Uncut reads are compared with the no-enzyme pool on a log2 scale; uncut sequences lie near 0, cut ones below; no hit call is given. Reads are scaled to the total, so uncut sequences can rise above 0 when many others are cut.
# How the values were obtained:
# Assay in all cases: uncleaved DNA left, log2 of reads against the no-enzyme library (log2 ratio); higher = less cleavage (more negative = more Rep cleavage of the k-mer); sequences stand for … in CTCGTCCG…ACCGGAGA
# [1] = tested on: T1, Rep nickase domain of Muscovy duck circovirus
# T1 sequence (residues 1-111 of Rep, tag left off): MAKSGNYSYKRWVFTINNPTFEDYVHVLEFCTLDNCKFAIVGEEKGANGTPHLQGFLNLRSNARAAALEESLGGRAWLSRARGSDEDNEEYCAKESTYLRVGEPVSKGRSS
# Procedure: (§1)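 A pool of 90-nt single-stranded DNAs with seven random bases just before the constant AC of the nick site (name = the seven bases) was cut by 3 µM recombinant His6-SUMO-tagged Rep nickase domain (300 nM DNA, 50 mM HEPES pH 8.0, 50 mM NaCl, 1 mM MnCl2, 1 h, 37 °C, three replicates). Uncut DNA was amplified and sequenced.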
# [2] = tested on: T2, Rep nickase domain of banana bunchy top virus
# T2 sequence (residues 1-94 of Rep, tag left off): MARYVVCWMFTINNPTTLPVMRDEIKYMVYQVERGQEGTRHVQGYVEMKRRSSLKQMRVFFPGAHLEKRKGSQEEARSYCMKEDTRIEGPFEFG
# Procedure: as §1
# [3] = tested on: T3, Rep nickase domain of cabbage leaf curl virus
# T3 sequence (residues 1-116 of Rep, tag left off): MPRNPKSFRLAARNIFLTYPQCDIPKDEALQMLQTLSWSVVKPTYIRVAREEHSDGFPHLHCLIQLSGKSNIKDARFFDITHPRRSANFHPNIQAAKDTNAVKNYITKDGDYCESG
# Procedure: as §1
# [4] = tested on: T4, Rep nickase domain of chickpea chlorotic dwarf virus
# T4 sequence (residues 1-124 of Rep, tag left off): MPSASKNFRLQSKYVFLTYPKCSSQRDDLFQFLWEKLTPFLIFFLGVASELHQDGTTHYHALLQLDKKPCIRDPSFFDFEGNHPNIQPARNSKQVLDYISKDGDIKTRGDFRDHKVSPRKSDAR
# Procedure: as §1
# [5] = tested on: T5, Rep nickase domain of faba bean necrotic yellows virus
# T5 sequence (residues 1-98 of Rep, tag left off): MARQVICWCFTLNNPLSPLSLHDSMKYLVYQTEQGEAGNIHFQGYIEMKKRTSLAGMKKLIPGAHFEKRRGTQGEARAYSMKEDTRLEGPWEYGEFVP
# Procedure: as §1
# [6] = tested on: T6, Rep nickase domain of maize striate mosaic virus
# T6 sequence (residues 1-117 of Rep, tag left off): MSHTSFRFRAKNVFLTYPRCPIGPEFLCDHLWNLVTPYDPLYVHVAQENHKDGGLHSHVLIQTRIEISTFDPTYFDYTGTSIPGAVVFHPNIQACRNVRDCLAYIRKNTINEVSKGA
# Procedure: as §1
# [7] = tested on: T7, Rep nickase domain of porcine circovirus 2
# T7 sequence (residues 2-116 of Rep, tag left off): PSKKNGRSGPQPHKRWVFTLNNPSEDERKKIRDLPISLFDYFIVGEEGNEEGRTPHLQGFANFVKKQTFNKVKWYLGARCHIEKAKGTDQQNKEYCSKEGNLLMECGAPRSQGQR
# Procedure: as §1
# [8] = tested on: T8, Rep nickase domain of tomato golden mosaic virus
# T8 sequence (residues 1-124 of Rep, tag left off): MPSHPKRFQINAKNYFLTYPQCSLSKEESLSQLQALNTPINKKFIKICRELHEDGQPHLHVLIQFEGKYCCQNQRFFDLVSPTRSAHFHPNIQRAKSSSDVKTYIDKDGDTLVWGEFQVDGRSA
# Procedure: as §1
# [9] = tested on: T9, Rep nickase domain of tomato yellow leaf curl virus
# T9 sequence (residues 1-136 of Rep, tag left off): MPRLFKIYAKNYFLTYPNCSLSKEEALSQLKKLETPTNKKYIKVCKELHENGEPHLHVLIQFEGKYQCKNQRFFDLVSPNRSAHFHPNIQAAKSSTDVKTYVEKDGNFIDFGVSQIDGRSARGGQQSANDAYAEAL
# Procedure: as §1
# [10] = tested on: T10, Rep nickase domain of wheat dwarf virus
# T10 sequence (residues 1-137 of Rep, tag left off): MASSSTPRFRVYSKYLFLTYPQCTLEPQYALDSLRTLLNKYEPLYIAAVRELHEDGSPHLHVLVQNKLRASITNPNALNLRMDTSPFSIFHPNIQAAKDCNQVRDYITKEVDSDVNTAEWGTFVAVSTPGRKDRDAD
# Procedure: as §1
Sequence,uncleaved DNA left (log2) [1],uncleaved DNA left (log2) [2],uncleaved DNA left (log2) [3],uncleaved DNA left (log2) [4],uncleaved DNA left (log2) [5],uncleaved DNA left (log2) [6],uncleaved DNA left (log2) [7],uncleaved DNA left (log2) [8],uncleaved DNA left (log2) [9],uncleaved DNA left (log2) [10]
GTAGTAC,-0.0605,0.0546,0.307,0.774,-0.00727,1.63,-0.619,0.048,0.0988,0.0193
TAGAGGA,0.0798,0.0641,0.159,0.323,0.053,-0.118,-0.115,0.0624,-0.0476,0.0326
TATCTTA,-0.109,0.0105,-0.0954,-2.14,-0.0266,-0.218,-0.265,-0.125,0.00248,-0.0501
TTGACAG,0.119,0.0538,-0.131,0.173,0.0222,-0.542,0.156,0.043,0.103,-0.0262
GAGGCAA,-0.00612,0.064,0.765,1.8,-0.000266,2,0.0838,0.0768,0.0579,0.132
GGCCAAA,-0.174,0.0265,0.597,1.38,-0.0764,1.68,0.155,-0.00411,0.0634,0.13
TTTTTCA,-0.175,-0.0135,0.192,-0.735,0.0236,0.102,-0.205,-0.0396,0.155,0.0528
GTAACGG,0.0452,0.0855,0.606,1.63,-0.0365,2.19,0.169,0.197,-0.0149,0.112
ATTGTAG,0.00751,0.0698,-0.764,-0.0713,-0.0557,-1.07,0.0638,-0.0287,0.0635,-0.147
GTCATCG,0.0569,0.0503,-0.0271,0.243,0.00196,0.392,0.0411,0.0371,0.00125,0.0445
TGAGACC,-0.0199,0.0434,0.259,0.764,-0.0583,-0.0659,0.00854,-0.144,0.077,0.131
CTGCGGA,0.163,0.0824,-0.407,-0.612,0.0501,-0.965,0.079,0.0631,0.00101,-0.0145
TGGGTTT,-0.081,-0.0863,0.545,0.836,-0.103,1.7,0.0818,-0.045,-0.0214,-0.00951
CTCGATT,-0.0033,-0.346,-0.0437,-2.15,0.0344,-0.349,-2.35,-0.149,-0.0361,0.109
TGATAAC,-0.0612,0.0442,0.0263,-0.326,0.0216,0.994,-0.00736,0.0698,-0.0353,0.0219
GTTTTTA,0.00122,0.137,0.434,0.897,0.0828,1.85,0.111,0.253,0.125,0.128
CTAACCA,-0.147,0.0862,-0.303,-2.08,0.00605,-0.552,-0.583,0.0303,0.251,0.0969
TTCTGCA,-0.138,-0.0381,-0.581,-1.18,-0.0744,-1.3,-0.154,-0.0797,-0.108,-0.109
TCAAACA,0.00377,0.0322,0.102,-2.07,0.089,-0.512,-0.105,-0.0436,0.0788,0.089
ATCGGGT,0.0269,0.0535,0.267,1.03,0.0647,1.48,0.158,0.078,0.0843,0.0938

Sequence,uncleaved DNA left (log2) [1],uncleaved DNA left (log2) [2],uncleaved DNA left (log2) [3],uncleaved DNA left (log2) [4],uncleaved DNA left (log2) [5],uncleaved DNA left (log2) [6],uncleaved DNA left (log2) [7],uncleaved DNA left (log2) [8],uncleaved DNA left (log2) [9],uncleaved DNA left (log2) [10]
AGTTCGA,0.0516,-0.0184,-0.394,-0.662,0.0394,-1.05,-0.0786,-0.0715,0.0323,-0.0688
CATCCCC,0.00823,-0.0472,-0.031,-0.371,-0.0498,-0.229,-0.322,-0.247,-0.21,-0.0326
TTCTCAA,0.184,0.115,0.21,0.341,0.0155,0.27,0.0652,0.00137,0.169,0.101
CGAGCAC,-0.129,-0.0862,0.108,0.427,-0.0605,0.633,-0.228,-0.0668,-0.0394,0.0585
TCGATGC,-0.0661,-0.0296,-0.328,-0.556,-0.0511,-1.17,0.079,-0.156,-0.00148,-0.0651
GTATGAA,0.0737,0.0347,0.273,0.796,-0.033,1.45,0.05,0.0712,0.0954,0.137
TGGGATA,-0.0749,-0.00383,0.572,1.73,-0.076,1.97,0.0831,0.000134,-0.0302,0.000935
TTTTGGC,-0.0511,-0.167,-0.253,-0.671,-0.123,-1.14,0.0802,-0.186,-0.0252,-0.218
AAGGGTT,0.155,-0.0148,0.102,1.47,-0.0812,1.72,-0.0847,0.0703,-0.146,-0.0295
CGCGCAT,-0.111,-0.0848,-0.248,-0.048,-0.101,-0.174,-0.0666,-0.289,-0.214,-0.0422
TGGGATT,-0.0782,-0.00426,0.652,1.72,-0.00294,2.04,0.159,-0.0634,0.0534,0.0557
CGGAACC,-0.105,-0.102,0.157,0.322,0.00825,0.447,-0.305,-0.13,-0.149,0.0275
CTAAGTG,0.0391,0.0198,-0.701,-0.763,0.0127,-1.07,0.14,-0.0363,-0.0102,-0.00574
TGTCCGT,0.0472,-0.0373,-0.114,-0.421,-0.0224,-0.628,-0.0452,-0.161,-0.0087,-0.0426
GATCGAG,0.0274,0.0282,0.429,0.855,-0.0217,0.219,0.18,0.0172,-0.00592,0.000273
CTTATGT,-0.00811,-0.00711,-0.0633,-0.436,0.0151,-0.826,-0.214,-0.153,0.109,0.0224
TCGGATC,0.107,0.0529,0.359,0.809,0.132,1.13,0.327,0.0184,0.151,0.0717
CTGCGAT,0.0764,-0.106,-0.301,-0.194,0.0612,-0.656,0.0675,-0.0331,-0.14,-0.157
TTCAATC,0.0751,0.228,0.647,1.68,0.0879,2,0.0594,0.224,0.212,0.313
GGTAGAT,0.0238,0.0453,0.718,1.76,0.0088,2.08,0.165,0.0493,-0.00415,0.142

Sequence,uncleaved DNA left (log2) [1],uncleaved DNA left (log2) [2],uncleaved DNA left (log2) [3],uncleaved DNA left (log2) [4],uncleaved DNA left (log2) [5],uncleaved DNA left (log2) [6],uncleaved DNA left (log2) [7],uncleaved DNA left (log2) [8],uncleaved DNA left (log2) [9],uncleaved DNA left (log2) [10]
AACGAAC,-0.0572,-0.289,-0.304,-0.146,-0.16,-0.68,-0.137,-0.116,-0.132,-0.0112
AGCGTGG,-0.058,-0.000825,-0.0859,0.442,-0.0938,1.04,-0.00491,-0.0787,-0.123,-0.09
GAGCATA,0.0568,0.0423,0.21,0.526,-0.0366,1.38,-0.601,-0.0881,0.012,0.106
CTCACTA,0.0399,0.054,0.0192,-1.46,0.0716,-0.608,0.0589,-0.0174,0.105,0.0599
CCTTTAC,-0.0458,-0.142,-0.357,-2.01,-0.0856,-0.923,-0.0439,-0.0248,-0.172,-0.106
GAGGTGA,-0.0779,-0.151,0.224,0.626,-0.085,0.793,-0.102,-0.0398,-0.0228,-0.0592
ACTAAAG,0.114,0.078,-0.67,-0.199,0.061,-1.02,0.336,0.0237,0.153,0.0274
CGATATG,0.0202,-0.0774,-0.157,0.565,-0.00518,0.991,0.0331,0.0242,0.0275,0.048
TCGGGCC,0.0541,-0.0136,0.286,0.63,-0.0697,0.723,0.0141,-0.109,0.0449,0.084
GGCAATT,0.0637,0.0797,0.752,1.56,0.0644,2.08,0.13,0.00139,0.25,0.104
AGAGGCA,0.0363,0.0487,0.0572,0.401,0.068,0.152,0.0423,0.0368,-0.0598,0.128
GACTTAT,-0.538,-0.636,0.126,-0.0436,-0.226,0.915,-3.18,-0.13,-0.0656,0.0128
TTAGCGT,0.0149,-0.0161,-0.832,-0.674,0.0525,-1.12,0.119,-0.0271,0.0165,-0.204
TGCTTCC,-0.123,-0.0349,0.149,-0.0218,-0.00308,0.221,-0.089,-0.102,0.0719,-0.105
GTGAAAA,-0.0895,0.0669,0.187,1.04,-0.0368,1.6,0.0898,0.106,0.0287,0.11
GCCACTT,0.117,0.0529,0.217,-0.854,-0.00497,0.529,-0.0836,-0.0938,0.0949,0.203
ACATATG,0.0103,0.0578,-0.638,-0.312,0.0679,-0.82,0.157,0.164,0.0924,-0.0726
ATGCCCA,-0.121,-0.0767,-0.0341,-0.649,-0.0787,-0.459,-0.156,-0.0826,-0.0879,-0.066
CCTGGCC,-0.108,-0.123,0.00252,0.319,-0.246,0.311,-0.0807,-0.108,-0.0904,-0.131
GGTCTGC,-0.038,0.0493,0.296,0.88,-0.0796,1.09,0.1,0.118,0.0547,0.00361
